Some of the results follow. Most values come without repeats; read them as rough.
system: SkMel30; experiment: cell count relative to DMSO control; melanoma cells; higher = more viable cells; settings: library dose: standard library concentration; 72 h
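Further: cells treated in 1,536-well plates, then fixed and DAPI-stained, with nuclei counted from automated high-throughput microscope images.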

SMILES	cell count [%]
O=C(Nc1ccccc1)c1cc([N+](=O)[O-])ccc1Cl + O=S(=O)(c1ccccc1)N(CC(F)(F)F)c1ccc(C(O)(C(F)(F)F)C(F)(F)F)cc1 [T0901317] (first compound 10 µM, partner dose 7 µM)	75.1
O=C(Nc1cc(C(F)(F)F)cc(C(F)(F)F)c1)c1cc(Cl)ccc1O + CCc1ccc(CCOc2ccc(CC3SC(=O)NC3=O)cc2)nc1 [pioglitazone] (first compound 0.08 µM, partner dose 10 µM)	108
Cn1nnc2c(C(N)=O)ncn2c1=O [temozolomide] + Oc1nc(-c2ccc(C(F)(F)F)cc2)nc2c1CSCC2 [XAV939] (first compound 10 µM, partner dose 10 µM)	75.1
O=C(Nc1cc(C(F)(F)F)cc(C(F)(F)F)c1)c1cc(Cl)ccc1O + C[C@]1(c2nc3c(C(N)=O)cccc3[nH]2)CCCN1 [Veliparib] (first compound 0.08 µM, partner dose 7 µM)	88.9
O=C(O)c1ccc2c(c1)nc(Nc1cccc(Cl)c1)c1ccncc12 + O=C(Nc1ccccc1)c1cc([N+](=O)[O-])ccc1Cl [GW9662] (first compound 2 µM, partner dose 10 µM)	69.9
O=C(O)c1ccc2c(c1)nc(Nc1cccc(Cl)c1)c1ccncc12 + Cn1cc(/C=C2\C(=O)Nc3cccnc32)c2ccccc21 [GW441756] (first compound 2 µM, partner dose 2 µM)	87.4
O=C(O)[C@@H]1[O][Sb](=[O])([O][Sb]2(=[O])[O][C@H]([C@H](O)CO)[C@H](O)[C@H](C(=O)O)[O]2)[O][C@H]([C@H](O)CO)[C@@H]1O (stereo not given in full) [stibogluconate] + COc1ccc2c(c1)CCC1C2CCC2(C)C(NCCCCCCN3C(=O)C=CC3=O)CCC12 [U73122] (first compound 10 µM, partner dose 2 µM)	127

system: SkMel5; experiment: as above; settings: library dose: standard library concentration; 72 h

SMILES	cell count [%]
O=C(Nc1cc(C(F)(F)F)cc(C(F)(F)F)c1)c1cc(Cl)ccc1O + Nc1ncn([C@H]2C[C@H](O)[C@@H](CO)O2)c(=O)n1 [decitabine] (first compound 0.08 µM, partner dose 0.5 µM)	80.2
O=C(O)[C@@H]1[O][Sb](=[O])([O][Sb]2(=[O])[O][C@H]([C@H](O)CO)[C@H](O)[C@H](C(=O)O)[O]2)[O][C@H]([C@H](O)CO)[C@@H]1O (stereo not given in full) [stibogluconate] + N#Cc1c(O)c2c(-c3ccc(-c4ccccc4O)cc3)csc2[nH]c1=O [A769662] (first compound 10 µM, partner dose 10 µM)	94.7
O=C(Nc1ccccc1)c1cc([N+](=O)[O-])ccc1Cl + Cc1cc([N+](=O)[O-])ccc1NS(=O)(=O)c1cc(Cl)ccc1Cl [FH535] (first compound 10 µM, partner dose 5 µM)	65.7
O=C(Nc1cc(C(F)(F)F)cc(C(F)(F)F)c1)c1cc(Cl)ccc1O + Nc1ccn([C@@H]2O[C@H](CO)[C@@H](O)C2(F)F)c(=O)n1 [gemcitabine] (first compound 0.08 µM, partner dose 0.002 µM)	107
O=C(Nc1cc(C(F)(F)F)cc(C(F)(F)F)c1)c1cc(Cl)ccc1O + C=CCn1c(=O)c2cnc(Nc3ccc(N4CCN(C)CC4)cc3)nc2n1-c1cccc(C(C)(C)O)n1 [MK1775] (first compound 0.08 µM, partner dose 0.1 µM)	64.4
O=C(Nc1cc(C(F)(F)F)cc(C(F)(F)F)c1)c1cc(Cl)ccc1O + CCCCCCCCCCCC1=C(O)C(=O)C=C(O)C1=O [Embelin] (first compound 0.08 µM, partner dose 6 µM)	71.5
Cn1nnc2c(C(N)=O)ncn2c1=O [temozolomide] + CCN(CC)CCCCNc1ncc2cc(-c3cc(OC)cc(OC)c3)c(NC(=O)NC(C)(C)C)nc2n1 [PD173074] (first compound 10 µM, partner dose 0.5 µM)	107
O=C(O)[C@@H]1[O][Sb](=[O])([O][Sb]2(=[O])[O][C@H]([C@H](O)CO)[C@H](O)[C@H](C(=O)O)[O]2)[O][C@H]([C@H](O)CO)[C@@H]1O (stereo not given in full) [stibogluconate] + Nc1ncn([C@H]2C[C@H](O)[C@@H](CO)O2)c(=O)n1 [decitabine] (first compound 10 µM, partner dose 0.5 µM)	80.8
